The supplement of paper PMC4466236
In all, about 33,000 sequences were measured (“E-score (dimensionless, -0.5 to 0.5)”: median about -0.058, highest 2% from about 0.35 on). The list shows a part of the results.

System: MvaT
Experiment: PBM 8-mer E-score (mean of HK and ME arrays) (E-score (dimensionless, -0.5 to 0.5)); higher = stronger relative binding preference; most listed sequences are background and not binding sites
In short: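 Full-length P. aeruginosa MvaT, with glutathione S-transferase fused to its N-terminus (cloned into pTH6838 by isothermal assembly), was tested by protein binding microarray using a previously described protocol. Two universal double-stranded 60-mer arrays (ME and HK) were used, each with a constant 25-mer primer region and a variable 35-mer region covering all 8-mers. The rank-based 8-mer E-score (-0.5 to 0.5) is the mean of the two arrays, parsed with a custom Python script.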

| Sequence | PBM 8-mer E-score |
| --- | --- |
| ATGACCAT | -0.0431 |
| CATCACAG | -0.147 |
| CCCGGCGA | -0.269 |
| CCCCTAAC | -0.0399 |
| GAGCAAAC | -0.0867 |
| GAAGCGGA | -0.142 |
| AGGACTAT | 0.0169 |
| GCAAACGA | -0.15 |
| ACGCGAGA | -0.06 |
| CTATCTTC | -0.038 |
| GGAGTACC | -0.231 |
| ATGAAATC | 0.0602 |
| ACACCCGA | -0.0287 |
| GCTGAACC | -0.169 |
| AAGATTCC | -0.0739 |
| ACCACTGA | -0.0828 |
| ATATAGTC | 0.361 |
| CCCCCTAC | -0.36 |
| CCAATGAA | -0.1 |
| CGTGTATC | 0.00917 |
| GGAACCGA | -0.165 |
| CCCTCGTA | -0.188 |
| CGCCCGGC | -0.262 |
| AGGGCGTG | -0.185 |
| AGTATATG | 0.351 |

| Sequence | PBM 8-mer E-score |
| --- | --- |
| CATTGACA | 0.15 |
| ACTCGTTG | -0.0973 |
| TGTTCGAA | 0.156 |
| AACATGAA | 0.286 |
| GAGGTTGC | -0.182 |
| AGAACTCC | -0.204 |
| GTGGGGTA | -0.145 |
| CCCTTCGA | -0.274 |
| GAAATCGA | 0.0851 |
| TCCCGGAA | -0.126 |
| AAGACAGC | 0.081 |
| ATTTTAAC | 0.307 |
| ATTCACCC | 0.00296 |
| AGAATCCT | -0.113 |
| TAGTGTCA | 0.132 |
| AGCTTCAA | -0.0478 |
| CGCTCTCA | -0.255 |
| AATAGGAT | 0.0576 |
| TACGTTGA | 0.0324 |
| CTCGTTTC | -0.0709 |
| CGAGGCAC | -0.239 |
| CCGTAATA | 0.287 |
| CGAGAGAA | 0.00368 |
| GGAATTAC | 0.149 |
| ATAGGTTC | -0.0175 |

| Sequence | PBM 8-mer E-score |
| --- | --- |
| GTTCGAAA | 0.0482 |
| AAGTTTTA | 0.318 |
| CGTTATCA | 0.111 |
| CTTATGAA | 0.153 |
| TACAGTAA | 0.328 |
| AACCCCCT | -0.319 |
| CATGGAAG | -0.173 |
| ATGACGGG | -0.106 |
| ATTACATG | 0.307 |
| ACTCTGTA | -0.00202 |
| AAGCAATC | -0.00724 |
| AAAGTAGC | -0.00641 |
| AACGACCC | -0.206 |
| GCACTATA | 0.279 |
| ATGTCTGC | -0.0286 |
| TCGCGTCA | -0.0789 |
| CCCGGAGC | -0.185 |
| GTCCATTA | 0.0833 |
| ATTCTTCC | 0.128 |
| GCACACCA | 0.00852 |
| CATCTCCG | -0.186 |
| CCCACTCC | -0.283 |
| AAGCCACA | -0.0582 |
| CCGCCATA | -0.00214 |
| GATATACA | 0.205 |

| Sequence | PBM 8-mer E-score |
| --- | --- |
| AGAGTCCG | -0.298 |
| ACCTTGTC | -0.198 |
| AGAGTTCC | -0.165 |
| ACTCCGTG | -0.114 |
| CGAGGTCC | -0.148 |
| AAACCTCT | -0.0484 |
| ATTCCATG | 0.194 |
| GACCATCC | -0.148 |
| AAACTGGG | 0.00238 |
| CTATGCCC | -0.194 |
| ATTACGCA | 0.263 |
| AGGGGCCG | -0.268 |
| ATGCATTG | 0.138 |
| CCGATAAA | 0.21 |
| CACAGACA | -0.0385 |
| CTCCTAAG | -0.0572 |
| GGGTGATA | -0.0167 |
| ACTACACA | 0.107 |
| AACAGGTC | -0.14 |
| ATGAAAAC | 0.212 |
| TGACAGAA | -0.151 |
| CGCGATAA | 0.143 |
| CAGATGGA | -0.0311 |
| CTAAATCC | 0.0361 |
| GCTTGTAA | 0.0867 |

| Sequence | PBM 8-mer E-score |
| --- | --- |
| ATCCATGG | -0.0323 |
| AGTTCTCC | -0.111 |
| AACGCTAA | 0.197 |
| CTTTGGTC | -0.0265 |
| CGGGATTC | -0.163 |
| CATTGAGG | -0.142 |
| AGCACTAA | -0.00924 |
| AGGTAGGC | -0.179 |
| CACGTCGA | -0.042 |
| CCTTGGTA | -0.225 |
| GGCTACAC | -0.187 |
| AATTTTCG | 0.238 |
| AGGACAAG | -0.075 |
| ACAAGTAC | 0.123 |
| CACAGCAC | -0.0801 |
| AAAGACGA | 0.0809 |
| GGATCGCC | -0.321 |
| GACAGGTA | -0.0934 |
| AGGGAGAG | -0.161 |
| GGATCAAA | -0.0216 |
| AAGACCAT | -0.0607 |
| CCGGGACC | -0.311 |
| ATGTTTCA | 0.316 |
| GAAGGGAC | -0.244 |
| AAGCTGAT | 0.0252 |

| Sequence | PBM 8-mer E-score |
| --- | --- |
| CCTATAGA | -0.0441 |
| CCCCGAAG | -0.273 |
| CGTATATA | 0.378 |
| CTCACAAG | -0.132 |
| GAGATCAA | -0.118 |
| ATCGATGA | -0.126 |
| CCTCTCCC | -0.212 |
| AGAGTTCG | 0.00443 |
| GTGACGTA | -0.1 |
| AGTTCCAG | 0.0982 |
| CGTAAGGA | -0.152 |
| CAGGCCTA | -0.194 |
| CCTCAGAA | -0.0368 |
| CACTGATA | 0.122 |
| ACCTACGA | -0.0935 |
| CCAGTCGC | -0.0501 |
| AGTGCCGC | -0.158 |
| CGCCCCGA | -0.241 |
| AGGTTAAG | -0.115 |
| CCCCAACA | -0.0459 |
| CCTGAAGG | -0.367 |
| GCACAAAC | 0.0194 |
| GATGGGAA | 0.0299 |
| CATCGATC | 0.00867 |
| CAGACGCA | -0.0153 |

| Sequence | PBM 8-mer E-score |
| --- | --- |
| CGGTAACG | -0.127 |
| GGCGAGCC | -0.343 |
| CGGCCTAA | -0.0439 |
| CTAGCGAA | -0.0376 |
| AGATGAAA | 0.0218 |
| GATGGGCA | -0.124 |
| GGTTCCTA | 0.0149 |
| ACAAGAGG | 0.00448 |
| CAAGTCAA | -0.0111 |
| ACAGTCCA | -0.146 |
| TAATGCTA | 0.15 |
| GTGGCTCA | -0.12 |
| CAACCATG | 0.0287 |
| AGCTTGAG | -0.246 |
| CCGCGGCA | -0.0718 |
| CGCTTCCC | -0.256 |
| TAGTAGCA | 0.118 |
| AAAATCTG | 0.136 |
| AAAGCACC | -0.0969 |
| ATCTGTGA | -0.0144 |
| CGTATGAG | -0.155 |
| ATCTCCAG | -0.00587 |
